In all, about 110,000 compounds were measured (“z-score”: median about -0.1, highest 2% from about 2 on). Some of the results follow. Calls of active or inactive are those of the source.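 The calls were made as follows: active = z-score in the third read window above 3 or below -3; inactive = the rest.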
biological target: Metabotropic glutamate receptor 8 (Rattus norvegicus) (UniProt P70579); test: mGluR8 Gi/Go-coupled signaling modulation – cell-based, rat, thallium flux, HTS, primary screen (AID 488969); conditions: HEK293 rat mGluR8, GIRK (G protein-gated inwardly rectifying potassium channel) thallium flux, FluoZin2; at 10 µM; stronger effect = higher value; submaximal glutamate (EC20) added with thallium
Sequence of UniProt P70579 (P70579 whole entry, looked up): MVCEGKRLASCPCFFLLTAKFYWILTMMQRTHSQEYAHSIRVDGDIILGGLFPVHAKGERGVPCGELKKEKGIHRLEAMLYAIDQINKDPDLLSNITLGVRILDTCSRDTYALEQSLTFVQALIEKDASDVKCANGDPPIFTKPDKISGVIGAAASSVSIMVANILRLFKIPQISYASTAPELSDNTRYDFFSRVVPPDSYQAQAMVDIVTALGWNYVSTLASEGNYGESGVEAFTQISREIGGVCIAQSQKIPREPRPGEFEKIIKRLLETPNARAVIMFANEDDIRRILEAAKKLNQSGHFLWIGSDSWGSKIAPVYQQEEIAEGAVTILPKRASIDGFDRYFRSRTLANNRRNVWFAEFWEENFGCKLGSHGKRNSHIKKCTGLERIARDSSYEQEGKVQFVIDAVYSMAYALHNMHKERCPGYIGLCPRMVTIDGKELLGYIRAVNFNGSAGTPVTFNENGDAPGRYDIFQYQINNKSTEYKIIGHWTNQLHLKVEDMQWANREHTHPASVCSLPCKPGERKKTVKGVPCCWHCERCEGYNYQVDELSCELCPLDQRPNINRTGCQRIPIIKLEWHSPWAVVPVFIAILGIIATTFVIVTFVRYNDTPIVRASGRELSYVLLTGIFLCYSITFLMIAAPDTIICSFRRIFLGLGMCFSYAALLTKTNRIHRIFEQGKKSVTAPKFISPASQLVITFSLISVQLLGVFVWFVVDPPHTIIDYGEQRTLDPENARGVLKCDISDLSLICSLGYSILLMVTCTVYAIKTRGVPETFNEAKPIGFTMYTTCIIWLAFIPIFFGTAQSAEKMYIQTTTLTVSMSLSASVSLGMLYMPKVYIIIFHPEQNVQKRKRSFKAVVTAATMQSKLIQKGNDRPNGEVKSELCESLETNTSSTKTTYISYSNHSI

Row | SMILES | z-score
1 | COC(=O)/C=C/C(=O)N1CCN(c2ccccc2C)CC1 | 0.352
2 | CC1CCC2C(=O)N(c3ccc(S(=O)(=O)c4ccccc4)cc3)C(=O)C2C1 (stereo unspecified) | -0.325
3 | COc1cc(NC(=O)CSc2nnc3n2C(C)(C)Cc2ccccc2-3)cc(OC)c1 | 0.158
4 | O=C(CSc1nnc(Cc2cccs2)n1Cc1ccco1)Nc1cccc(Cl)c1 | -0.645
5 | COCCN1C(=O)C(=O)/C(=C(/O)c2cccc(OC)c2)C1c1ccc(C)o1 (stereo unspecified) | -0.575
6 | CN1CCN(CC(=O)N2c3ccccc3C(C)(c3ccccc3)CC2(C)C)CC1 (stereo unspecified) | active: 3.59
7 | CN1C(=O)CC(N2CCN(C(=O)c3ccccc3)CC2)C1=O (stereo unspecified) | 0.26
8 | CCc1nnc(NC(=O)c2ccc3c(c2)C(=O)N(CC(C)C)C3=O)s1 | -0.103
9 | CC(C)c1nnc(NC(=O)C2CCN(c3cnccn3)CC2)s1 | 0.893
10 | Cc1nn(-c2cc(N3CCCCC3)ccc2N)c(=O)c2ccccc12 | -0.187
11 | COCCNC(=O)c1onc(CSc2ccc(Cl)cc2)c1C(=O)O | -0.0433
12 | Nc1nn(-c2ccccc2)c(N)c1N=Nc1ccccc1F | -0.34
13 | O=C(NCc1cccnc1)c1nnc(Cc2ccc(F)cc2)o1 | 1.02
14 | CCSc1ccccc1C(=O)N1CCN(c2ccccc2F)CC1 | 0.749
15 | CC(=O)c1ccc(N2Cc3ccccc3/C2=N\C(=O)Nc2ccccc2)cc1 | -0.211
16 | O=C(O)c1cccnc1-c1ncccc1C(=O)O | 0.688
17 | COc1ccc(C(C)N2CC34C=CC(O3)C(C(=O)OCC(C)C)C4C2=O)cc1 (stereo unspecified) | active: 5.16
18 | Cc1onc(-c2ccccc2)c1C(=O)NC(C)C1CCCO1 (stereo unspecified) | -0.159
19 | Cc1ccc(/C=c2\sc3nc(-c4cccnc4)nn3c2=O)cc1 | 0.151
20 | COC(=O)C1CCN(c2c([N+](=O)[O-])cc(C(F)(F)F)cc2[N+](=O)[O-])CC1 | -0.0994
21 | O=C(CCc1ccccc1)Nc1nnc(-c2cccs2)o1 | 0.129
22 | COc1ccc([N+](=O)[O-])cc1NC(=O)CSCc1ccccc1 | -0.43
23 | O=C(Nc1ccccc1N1CCN(C(=O)c2ccccc2)CC1)c1cc2ccccc2o1 | 0.308

Row | SMILES | z-score
24 | C=CCn1c(SCC(=O)c2ccccc2)nnc1-c1ccc2c(c1)OCO2 | -0.481
25 | Cc1cc(C)c(S(=O)(=O)NNC(=O)C2CCN(Cc3ccccc3)CC2)c(C)c1 | -0.966
26 | Nc1nnnn1/N=C/c1ccccc1OCc1ccccc1 | -0.208
27 | COCCNC(=O)c1ccc(CS(=O)(=O)c2c(Cl)cccc2Cl)o1 | 0.757
28 | CCCCN(C(=O)Cn1nnc2ccccc21)C(C(=O)NCCOC)c1ccccc1 (stereo unspecified) | -0.227
29 | COc1cc(NC(=O)c2cccs2)c(C(=O)OCC(=O)NC(=O)NCc2ccccc2)cc1OC | -0.586
30 | O=C(NCC1c2ccccc2CCN1C(=O)CN1CCOCC1)C1CCCCC1 (stereo unspecified) | -0.979
31 | CCc1cc2c(=O)c(Oc3ccccc3)c(C)oc2cc1O | 0.432
32 | CCOc1ccc(S(=O)(=O)NCC(=O)N(C)Cc2cccnc2)cc1 | -0.383
33 | O=C(Nc1cccc([N+](=O)[O-])c1)C12CC3CC(C1)CC(n1cnc([N+](=O)[O-])n1)(C3)C2 | -0.0887
34 | CCOc1c(Cl)cc(/C=N/O)cc1OC | -0.0817
35 | O=C(CCCN1C(=O)c2ccccc2C1=O)Nc1ccc(S(=O)(=O)N2CCCCC2)cc1 | -0.235
36 | CC(=O)Nc1cccc(NC(=O)CSc2nnc(Cc3cccn3C)n2-c2ccc(C)cc2)c1 | -0.278
37 | CCc1ccccc1NC(=O)CN(C)C(=O)CN1C(=O)NC2(CCCCCC2)C1=O | 0.405
38 | CN1/C(=C\C=C2/C(=O)Oc3ccccc3C2=O)C(C)(C)c2ccccc21 | -1.24
39 | Cc1cc(C)n(C(=O)C(C)n2nc([N+](=O)[O-])c(Br)c2C)n1 (stereo unspecified) | -0.409
40 | O=C(O)/C=C1\NC(=O)c2ccccc21 | 0.246
41 | O=C1/C(=C/c2cccnc2)Sc2ccccc21 | -1.04
42 | Cc1nc(N)sc1-c1csc(Nc2ccc(Cl)cn2)n1 | 0.139
43 | CN(C)c1cccc2c(S(=O)(=O)Nc3ccccn3)cccc12 | 0.146
44 | COc1cc(CC(=O)N/N=C/c2ccccc2)c([N+](=O)[O-])cc1OC | 0.0677
45 | O=C(c1ccc2c(c1)C(=O)N(c1ccc(Cl)cc1)C2=O)N1CCN(c2ccccn2)CC1 | -0.0725
46 | CCCCNC(=O)CN(c1cccc(F)c1)S(C)(=O)=O | -0.302

Row | SMILES | z-score
47 | O=C1/C(=C/Nc2cccc([N+](=O)[O-])c2)CCc2ccccc21 | -0.099
48 | CCOC(=O)Nc1sc(C)c(C)c1C(N)=O | -0.105
49 | O=C(O)c1ccc(COc2cccc(CO)c2)cc1 | -0.245
50 | CCCNc1nc2c(c(=O)n(C)c(=O)n2C)n1Cc1cccc(C)c1 | -0.0556
51 | Cc1ccc(S(=O)(=O)N2CCN(C(=O)C3=COCCO3)CC2)cc1C | -0.111
52 | O=C(NCc1ccccn1)Nc1ccc(Cl)c(Cl)c1 | -0.732
53 | CC1(C)CC(=O)C2=C(C1)N=C1c3ccccc3C(=O)C1C2c1ccc(Cl)cc1 (stereo unspecified) | -1.67
54 | O=C(OCc1ccc([N+](=O)[O-])cc1)C1CCN(S(=O)(=O)c2ccccc2)CC1 | -0.136
55 | C=CCSc1nnc(NC(=O)CSc2nc3ccccc3o2)s1 | -0.372
56 | Cc1ccc(NC(=O)CCC(=O)O)cc1F | 0.48
57 | COCC(=O)N1CCCc2ccccc21 | 0.0509
58 | Cc1ccc(N2CC(C(=O)Nc3ccc(S(=O)(=O)N4CCCC4)cc3)CC2=O)cc1 (stereo unspecified) | -0.329
59 | COC(=O)c1ccccc1COn1c(=O)c(C)[n+]([O-])c2ccccc21 | 0.114
60 | CC(=O)OCCCNc1cc(Sc2ccc(Cl)cc2)c2nonc2c1[N+](=O)[O-] | 0.978
61 | COC(=O)c1cc(C(=O)NCCN2C(=O)S/C(=C\c3cccs3)C2=O)cc([N+](=O)[O-])c1 | -0.135
62 | Cc1ccc(N=Nc2ccc(O)c3ncccc23)cc1 | 2.05
63 | COCCOC(=O)c1c(NC(=O)CN2CCCc3ccccc32)sc(C(N)=O)c1C | -0.382
64 | CCCC(C)NC1=NCCCCC1 (stereo unspecified) | 0.206
65 | CCCCC(CC)C1OCC(C[N+]2(C)CCOCC2)O1 (stereo unspecified) | -0.121
66 | COc1ccccc1NS(=O)(=O)c1ccc(C)c(C(=O)NCC2CCCO2)c1 (stereo unspecified) | 0.0452
67 | CCOC(=O)c1cnc2ccc(F)cc2c1Nc1ccc2c(c1)OCCO2 | -0.574
68 | Cc1ccc(Oc2cc(NC(=O)CCCn3nc([N+](=O)[O-])cc3C)cc([N+](=O)[O-])c2)cc1 | -0.627
69 | Cc1cccc(NC(=O)CCN2CC(C)OC(C)C2)c1 (stereo unspecified) | 0.142

Row | SMILES | z-score
70 | NC(=O)c1cn(-c2ccccc2)nc1-c1cc2ccccc2oc1=O | -0.199
71 | CSc1nc(-c2ccccc2)nn1C(=O)c1ccccc1 | -0.107
72 | CCOC(=O)C1=C(C)Nc2ccccc2N=C1NC(=O)C(CC)c1ccccc1 (stereo unspecified) | -0.283
73 | CCOC(=O)C1C(=O)C=C(c2ccc(C)cc2)CC1c1ccc([N+](=O)[O-])cc1 (stereo unspecified) | -0.411
74 | CCCCCn1c(=NC(=O)c2ccco2)c(C(=O)OCC)cc2c(=O)n3ccccc3nc21 | -0.363
75 | CCCC(=O)NCCc1ccc(F)cc1 | -0.00833
76 | COc1ccc(Cn2c(C3CC3)nc3ccc(NC(=O)C4CC4)cc3c2=O)cc1 | 0.333
77 | Cc1nnc2n(Cc3ccccc3)c(=O)c3c4c(sc3n12)COC(C)(C)C4 | 0.198
78 | CC(=O)Nc1c2c(nn1-c1ccc(C)cc1C)CSC2 | -0.841
79 | CC(C)(C)c1ccc(N2C(=O)Cc3c2nc(N)c(C#N)c3N)cc1 | 0.21
80 | O=C(O)C1CC=CCC1C(=O)Nc1ccccc1C(=O)N1CCN(c2ccccc2)CC1 (stereo unspecified) | -0.11
81 | COc1ccc2[nH]c(=O)c(CN(C(=O)c3cccnc3)c3ccc(C)cc3)cc2c1 | -0.109
82 | CCCCN(CC)Cc1ccc(CNC(=O)Nc2ccc(OC)cc2OC)o1 | -0.146
83 | Cc1nccn1Cc1cccc2ccccc12 | 0.476
84 | Cn1c(=O)oc2cc(S(=O)(=O)NCc3ccco3)ccc21 | 0.202
85 | Cn1c2c(c(=O)n(C)c1=O)CN(Cc1ccco1)CN2 | -0.26
86 | O=c1c2cnn(-c3ccc(F)cc3)c2ncn1Cc1ccccc1 | -1.18
87 | COc1ccccc1-c1nnc(SCC(=O)Nc2c(Cl)cccc2Cl)o1 | 0.304
88 | CC(=O)Nc1ccc2c(c1)nc1n2CCSC1 | -0.406
89 | C/C(NC(=O)c1ccccc1)=C1/C(=O)CC2C1C2(C)C (stereo unspecified) | -0.669
90 | Cc1cc(C)nc(SCCC(=O)Nc2cccc3ccccc23)n1 | -0.213
91 | Cc1ccc2oc(-c3ccc(NC(=O)CC(C)C)cc3)nc2c1 | -0.144
92 | O=C(Nc1cccnc1)c1scc2c1OCCO2 | -0.573

Row | SMILES | z-score
93 | CC(C)CCNC(=O)C(=O)NCCC1=CCCCC1 | 0.86
94 | CC1Cc2nc(SCC(=O)N3CCN(c4ccccc4)CC3)n(C)c(=O)c2S1 (stereo unspecified) | -0.938
95 | CS(=O)(=O)N(CC(=O)N1CCCCC1)c1ccc2c(c1)OCO2 | 0.403
96 | Cc1csc(SCC(=O)Nc2ncc(Cl)c(C)c2Cl)n1 | 0.185
97 | COc1ccc(CC(=S)N2CCOCC2)cc1OC | -0.316
98 | Cc1c(CCO)c(=O)[nH]n1C(=O)c1c(F)cccc1F | -0.0409
99 | Cc1nnc(N2C(=O)c3cccc4cccc(c34)C2=O)s1 | -0.355
100 | Cc1ccc(C)c(N2C(=O)c3cc(N4CCOCC4)c([N+](=O)[O-])cc3C2=O)c1 | -0.109
101 | O=C1c2cccnc2C(=O)N1c1cccc(-c2nc3ccccc3o2)c1 | -1.17
102 | Cc1nn(Cc2ccccc2Cl)c(C)c1NC(=O)CCCn1nc(C)c([N+](=O)[O-])c1C | -0.213
103 | CCOC(=O)c1c(C)[nH]c(N=Nc2ccccc2)c1C | 0.322
104 | Cc1c(N=C/C=C2/N(C)c3ccccc3C2(C)C)c(=O)n(-c2ccccc2)n1C | 0.846
105 | N#Cc1c(N2C(=O)Nc3ccccc3N2O)sc2c1CCCCCC2 | -0.322
106 | Cc1cccc(C)c1NC(=O)CNc1ccccc1 | 0.211
107 | Cc1ccc(/C=C2\OC(=O)c3ccccc32)cc1 | 0.353
108 | COc1ccc2cc(S(=O)(=O)N3CCN(C)CC3)ccc2c1 | -0.125
109 | c1ccc(CSc2ncccn2)cc1 | 0.193
110 | Cn1c(=O)c2c(nc(N3CCCCC3)n2C)n(C)c1=O | -0.4
111 | CCCc1nnc(NC(=O)CCC(=O)N2CCN(CCn3c(C)ccc3C)CC2)s1 | -1.08

From PubChem BioAssay AID488969 (Vanderbilt High Throughput Screening Facility, 2010)
